Source: US20220218614A1, “IONIZABLE CATIONIC LIPIDS AND LIPID NANOPARTICLES, AND METHODS OF SYNTHESIS AND USE THEREOF” (Tidal Therapeutics, Inc., priority 2020, published 2022)
Entries after “also recorded” stand apart in the source; their conditions may differ.

Key:
[1] = tested on: human CD8 T cells; assay: Transfection of human CD8 T cells with Fab-targeted Cy5/GFP mRNA LNPs; type: cell-based; settings: Lipid 8 LNP, Cy5/GFP mRNA approximately 2.5 μg/mL, approximately 24 hr, Fab conjugate post-inserted
Procedure: LNPs were prepared using the mixing process described in Example 6, the buffer exchange process described in Example 21. hSP34 and TRX2 Fab-lipid conjugates generated from methods described in Example 4 and a non-T cell specific anti-HER2 lipid-conjugate (Nellis D F, Ekstrom D L, Kirpotin D B, Zhu J, Andersson R, Broadt T L, Ouellette T F, Perkins S C, Roach J M, Drummond D C, Hong K, Marks J D, Park J W and Giardina S L (2005) Preclinical manufacture of an anti-HER2 scFv-PEG-DSPE, liposome-inserting conjugate. 1. Gram-scale production and purification. Biotechnol Prog 21:205-220) were post-inserted at various densities (SP34 0.6-17 g/mol; TRX2 3-9 g/mol; anti-HER2 17 g/mol) into LNPs containing Lipid 8, Cy5 labeled GFP mRNA and GFP mRNA (1:9 Cy5:GFP mass ratio) by adding conjugate and LNPs together and heating the solution without mixing in a thermal cycler at 60 C for 60 min and cooled to 4° C. for 3-5 min. […] After transfection, LNP binding efficiency (Cy5) and transfection efficiency (GFP) was evaluated by flow cytometry. Supernatants were measured for human IFNγ concentration using a commercially available ELISA kit under manufacturers recommended conditions (R&D Systems Duoset). […]

[2] = tested on: human CD3 T cells; assay: Transfection of human CD3 T cells (CD8 and CD4 subsets) with Fab/Nb-targeted LNPs; type: cell-based; settings: approximately 24 hr; for % GFP transfection and GFP expression (MFI) of CD8 and CD4 T cells, in words: targeted Lipid 8 LNP (Lipid 5 in Example 43), GFP mRNA approximately 2.5 μg/mL
Procedure: (§1) LNPs were prepared using the mixing process described in Example 6, the buffer exchange process described below in Example 21. Using methods similar to Example 12, hSP34 and TRX2 Fab-lipid conjugates and a non-T cell specific anti-HER2 lipid-conjugate (Nellis D F, Ekstrom D L, Kirpotin D B, Zhu J, Andersson R, Broadt T L, Ouellette T F, Perkins S C, Roach J M, Drummond D C, Hong K, Marks J D, Park J W and Giardina S L (2005) Preclinical manufacture of an anti-HER2 scFv-PEG-DSPE, liposome-inserting conjugate. 1. Gram-scale production and purification. Biotechnol Prog 21:205-220) were post-inserted at various densities (SP34 0.25-17 g/mol; TRX2 0.25-9 g/mol; SP34+TRX2 0.25-9 g/mol each conjugate; anti-HER2 17 g/mol) into LNPs containing Lipid 8 and anti-CD20 targeting CART mRNA. Transfections were performed with human CD3 T cells at approximately 2.5 μg/mL mRNA for approximately 24 hr. For FACS analysis T cells were stained with M1 antibody (Sigma, F3040) that bind a N-terminus FLAG-tag variant sequence on the TTR-023 CAR (sequence provided below) in addition to staining for CD69 (Biolegend, 310930) and CD4 (Biolegend, 344648) to differentiate CD8 from CD4 cells.
LNPs were prepared using the mixing process described in Example 6, the buffer exchange process described in Example 21. Using methods similar to Example 12, hSP34, TRX2, and Ibalizumab Fab-lipid conjugates and a non-T cell specific anti-HER2 lipid-conjugate were post-inserted at various densities (specified in FIGS. 20A and 20B into LNPs containing Lipid 8 and Cy5/GFP mRNA. Transfections were performed with human CD3 T cells at approximately 2.5 μg/mL mRNA for approximately 24 hr and stained for CD69 (Biolegend, 310930) and CD4 (Biolegend, 344648) to differentiate CD8 from CD4 cells by FACS analysis.
LNPs were prepared using the mixing process described in Example 6, the buffer exchange process described in Example 21. […] Levels of transfection of CD3 T cells was measured by flow cytometry. […]

[3] = tested on: IFNγ; assay: Human IFNγ ELISA of T cell culture supernatants after LNP transfection; type: cell-based; settings: T cells approximately 24 hr after targeted LNPs at approximately 2.5 μg/mL mRNA
Procedure: LNPs were prepared using the mixing process described in Example 6, the buffer exchange process described in Example 21. hSP34 and TRX2 Fab-lipid conjugates generated from methods described in Example 4 and a non-T cell specific anti-HER2 lipid-conjugate (Nellis D F, Ekstrom D L, Kirpotin D B, Zhu J, Andersson R, Broadt T L, Ouellette T F, Perkins S C, Roach J M, Drummond D C, Hong K, Marks J D, Park J W and Giardina S L (2005) Preclinical manufacture of an anti-HER2 scFv-PEG-DSPE, liposome-inserting conjugate. 1. Gram-scale production and purification. Biotechnol Prog 21:205-220) were post-inserted at various densities (SP34 0.6-17 g/mol; TRX2 3-9 g/mol; anti-HER2 17 g/mol) into LNPs containing Lipid 8, Cy5 labeled GFP mRNA and GFP mRNA (1:9 Cy5:GFP mass ratio) by adding conjugate and LNPs together and heating the solution without mixing in a thermal cycler at 60 C for 60 min and cooled to 4° C. for 3-5 min. […] After transfection, LNP binding efficiency (Cy5) and transfection efficiency (GFP) was evaluated by flow cytometry. Supernatants were measured for human IFNγ concentration using a commercially available ELISA kit under manufacturers recommended conditions (R&D Systems Duoset).
IFN-γ was assayed using an R&D Duoset […] ELISA kit, PN DY285B. […] Optical density at 450 nm was read on a Spectramax M5 plate reader. […]

[4] = tested on: CD69; assay: CD69 upregulation on T cells after LNP transfection (FACS staining); type: cell-based, human; settings: approximately 24 hr after targeted Lipid 8 LNPs at approximately 2.5 μg/mL mRNA
Procedure: as §1
LNPs were prepared using the mixing process described in Example 6, the buffer exchange process described in Example 21. […]

[5] = tested on: human whole blood; assay: Whole blood transfection of immune cells with Fab targeted mRNA LNPs; type: cell-based; settings: Lipid 8 LNP, 2.5 μg/mL mCherry mRNA, 24 hours
Procedure: Venous blood from healthy volunteers was anti-coagulated in heparin tubes (BD Biosciences #367526) and seeded at 50 μL in a 96-well round-bottom plate. Transfection of whole blood was carried out simply by adding nanoparticles containing 5 μg/mL mRNA to the cells and co-culturing at 37° C. until the time of analysis. To assess transfection efficiency, cells were analyzed 24-hours post-transfection by flow cytometry. LNPs used (with and without post-inserted targets) at 2.5 μg/mL:RDM073.23. Cells obtained from human blood were analyzed by flow cytometry. Prior to the analysis of whole blood transfection efficiency, red blood cells were lysed twice with VersaLyse Lysing Solution (Beckman Coulter #A09777) for 10 minutes at room temperature. […]
Compensation for each fluorochrome was performed in the multicolor flow panels using positive and negative compensation beads. Fluorescence minus one (FMO) samples and unstained controls were included to determine the level of background fluorescence and to set the gates for the negative cell populations versus the positive cell populations.
All samples were acquired on a BD LSRFortessa X-20 (BD Biosciences) running […] software (Becton Dickinson). All data collected were analyzed using FlowJo 10.7.1 software and GraphPad Prism version 9.0. […]

B1: TRX2: anti-CD8 Fab, SEQ ID NO: 6 and 7 (antibody)
heavy: QVQLVESGGGVVQPGRSLRLSCAASGFTFSDFGMNWVRQAPGKGLEWVALIYYDGSNKFYADSVKGRFTISRDNSKNTLYLQMNSLRAEDTAVYYCAKPHYDGYYHFFDSWGQGTLVTVSSASTKGPSVFPLAPSSKSTSGGTAALGCLVKDYFPEPVTVSWNSGALTSGVHTFPAVLQSSGLYSLSSVVTVPSSSLGTQTYICNVNHKPSNTKVDKKVEPKSSDKTHTC
light: DIQMTQSPSSLSASVGDRVTITCKGSQDINNYLAWYQQKPGKAPKLLIYNTDILHTGVPSRFSGSGSGTDFTFTISSLQPEDIATYYCYQYNNGYTFGQGTKVEIKRTVAAPSVFIFPPSDEQLKSGTASVVCLLNNFYPREAKVQWKVDNALQSGNSQESVTEQDSKDSTYSLSSTLTLSKADYEKHKVYACEVTHQGLSSPVTKSFNRGES
Question: With B1 as the molecule, how does the “transfection (% GFP+, GFP MFI) and binding (% Cy5+, Cy5 MFI), in words” value [1] read?
Answer: High transfection (FIG. 13A) and binding; also recorded: higher transfection than OKT8

Question: And the “% TTR-023+ (anti-CD20 CAR) CD8 and CD4 T cells, in words” value ([2]; Lipid 8 LNP with anti-CD20 CAR (TTR-023) mRNA, approximately 2.5 μg/mL)?
Answer: transfection was detected over background for TRX2 at 6-9 g/mol Fab

Question: And the “% GFP transfection and GFP expression (MFI) of CD8 and CD4 T cells, in words” value [2]?
Answer: specific LNP binding and transfection to CD3 and CD8 cells respectively

Question: What about the “% GFP transfection and GFP expression (MFI) of CD8 and CD4 T cells, in words” value ([2]; listed as TRX2 NoDS Fab) of the same molecule?
Answer: slightly higher % transfection (FIG. 68A) and GFP expression levels (FIG. 68B) than the buried disulfide (bDS) TRX2 Fab

Question: What about the “IFNγ secretion into supernatant, in words” value [3] of the same molecule?
Answer: low levels of IFNγ secretion

Question: What about the “CD69 upregulation on CD8 and CD4 T cells, in words” value [4] of the same molecule?
Answer: mediated CD69 expression on CD8 cells only; also recorded: much lower levels of CD69

Question: What about the “% mCherry+ cells (transfection) in whole blood, in words” value [5] of the same molecule?
Answer: efficiently transfects CD8 T-cells without transfection observed in CD4 T-cells
